# For some of these results: What follows is the remainder of the data, with few or none of the strong results. The entries are a selection whose mix differs from that of the whole data set.
# Key:
# Conditions in all cases: concentration: 1 μM,replicates: in singlicate; n = 1
# CIT = test system: CIT
# CLK1 = test system: CLK1
# CLK2 = test system: CLK2
# CLK3 = test system: CLK3
# CLK4 = test system: CLK4
# CSF1R-autoinhibited = test system: CSF1R-autoinhibited
# CSF1R = test system: CSF1R
# CSK = test system: CSK
# CSNK1A1L = test system: CSNK1A1L
# CSNK1A1 = test system: CSNK1A1
# CSNK1D = test system: CSNK1D
# CSNK1E = test system: CSNK1E
# CSNK1G1 = test system: CSNK1G1
# CSNK1G2 = test system: CSNK1G2
# CSNK1G3 = test system: CSNK1G3
# CSNK2A1 = test system: CSNK2A1
# CSNK2A2 = test system: CSNK2A2
# CTK = test system: T1, CTK
# T1 construct: gene MATK
# DAPK1 = test system: DAPK1
# DAPK2 = test system: DAPK2
# 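Note: KINOMEscan kinase panel screen.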
SMILES,%Inh (CIT) [%],%Inh (CLK1) [%],%Inh (CLK2) [%],%Inh (CLK3) [%],%Inh (CLK4) [%],%Inh (CSF1R-autoinhibited) [%],%Inh (CSF1R) [%],%Inh (CSK) [%],%Inh (CSNK1A1L) [%],%Inh (CSNK1A1) [%],%Inh (CSNK1D) [%],%Inh (CSNK1E) [%],%Inh (CSNK1G1) [%],%Inh (CSNK1G2) [%],%Inh (CSNK1G3) [%],%Inh (CSNK2A1) [%],%Inh (CSNK2A2) [%],%Inh (CTK) [%],%Inh (DAPK1) [%],%Inh (DAPK2) [%]
O=C1NC(=O)C(c2ccccc2Cl)=C1Nc1ccccc1 [SB-376715],3,3,73,0,12,16,0,4,0,0,6,0,91.7,0,5,0,4,0,0,9
O=C(O)c1ccc(-c2nc(-c3ccc(F)cc3)c(-c3ccncc3)[nH]2)cc1 [SB-202620],42,16,0,0,13,12,20,0,0,69,29,28,0,22,0,0,18,2,5,16
Cc1cc(C)cc(Oc2nccc(-c3c(-c4ccc(F)cc4)ncn3C3CCNCC3)n2)c1.O=C(O)C(F)(F)F.O=C(O)C(F)(F)F.O=C(O)C(F)(F)F [SB-284851],87,0,0,0,0,0,0,6,0,59,90.1,70,13,39,21,0,0,0,0,22
O=C1NC(=O)C(c2ccc(Cl)cc2)=C1Nc1cccc(O)c1 [SB-333613],17,63,73,0,54,29,10,1,0,25,4,0,0,4,0,0,24,31,15,13
O=C1NC(=O)C(c2ccc(Cl)cc2)=C1Nc1ccccc1 [SB-317661],0,3,38,0,0,0,0,1,0,0,0,2,7,0,0,0,0,41,0,14
O=C1NC(=O)C(c2ccc(Cl)cc2)=C1Nc1cccc(C(=O)O)c1 [SB-360737],5,36,0,0,17,0,16,0,0,0,15,6,0,0,0,0,0,0,0,0
COc1ccc(C2=C(Nc3cccc(Cl)c3)C(=O)NC2=O)cc1 [SB-326892],25,83,81,0,59,0,0,0,0,0,0,0,0,0,22,0,16,35,69,0
CS(=O)(=O)c1ccccc1-c1nc(-c2ccc(F)cc2)c(-c2ccncc2)[nH]1 [SB-213663],97.2,0,0,0,8,38,3,0,12,76,74,66,0,0,0,0,0,1,11,0
